Measurements published in PubChem BioAssay AID463173 (ICCB-Longwood Screening Facility, Harvard Medical School, 2010).
In all, about 52,000 compounds went through this assay and about 4,300 (8.3%) were called active. Rule as the data show it: active = survival mostly below about 52% (no sharp cut-off); inactive = mostly above about 56%. Some of the results follow.

Tested on: DeltatarO mutant
Experiment: growth inhibition of S. aureus wild type versus tarO mutant, primary screen, teichoic acid synthesis inhibitors, RN4220, OD600 (AID 463173)
Details: OD600, 18 h, stronger effect = lower value, screened at 18.75 µg/mL (by protocol)

Row | Structure (SMILES) | survival
1 | Cc1ccc(C(=O)CSc2nc3ccccc3c(=O)n2Cc2ccco2)cc1 | inactive: 85%
2 | Cc1cccc(Cn2c(=O)n(CC3CCC(C(=O)N4CCC(C)CC4)CC3)c(=O)c3sccc32)c1 (configuration not stated) | inactive: 75%
3 | Cc1nc2cc(-c3ccccc3)nn2c(C)c1CCC(=O)NCc1cccc(Cl)c1 | inactive: 43%
4 | Cc1ccc(CNC(=O)CN(c2cc(C)cc(C)c2)S(=O)(=O)c2c(C)noc2C)cc1 | inactive: 84%
5 | COc1ccc(CNC(=O)CCc2c(C)c3cc4c(C)coc4cc3oc2=O)cc1 | inactive: 75%
6 | COc1ccc(CNC(=O)c2nc(S(=O)(=O)Cc3ccccc3)ncc2Cl)cc1 | active: 18%
7 | Cc1cccc(NC(=O)/C(=C\c2ccco2)NC(=O)c2cccs2)c1 | inactive: 84%
8 | Cc1ccc(-n2nc3c(=O)n(CC(=O)NCc4ccco4)nc(C)c3c2C)cc1 | inactive: 75%
9 | Cc1ccc(-n2c(=O)c3ccc(C(=O)NCc4ccco4)cc3n(Cc3ccc(Cl)cc3)c2=O)cc1 | inactive: 77%
10 | Cc1ccccc1CNCCSc1nnnn1-c1ccccc1 | inactive: 89%
11 | CCOC(=O)N1CCN(Cc2nc3cc(NC(=O)c4ccccc4OC)ccc3n2C(C)C)CC1 | inactive: 80%
12 | COc1ccc(S(=O)(=O)N2CCC(NC(=O)c3ccccc3)CC2)cc1 | inactive: 103%
13 | Cc1ccc2c(c1)N(CC(=O)NCCCN1CCCCC1C)C(=O)c1cccnc1O2 (configuration not stated) | inactive: 69%
14 | COc1ccc(-n2c(=O)c3ccc(C(=O)NCc4ccc(C)cc4)cc3n(Cc3ccc(C)cc3)c2=O)cc1 | inactive: 84%
15 | COc1ccc(Oc2nc3c(C)cccn3c(=O)c2/C=C(\C#N)c2nc3ccccc3[nH]2)cc1 | inactive: 82%
16 | CCc1ccc2ncc3c(-c4ccc(C)cc4)nn(CC(=O)Nc4ccc(C)cc4)c3c2c1 | inactive: 55%
17 | Cc1cc(C)c(NC(=O)Cn2c(=O)n(-c3ccc(F)cc3)c(=O)c3c(C)c(C(=O)N(C)C)sc32)c(C)c1 | inactive: 67%
18 | O=C(Nc1ccccc1O)c1cccc(S(=O)(=O)Nc2ccccc2O)c1 | inactive: 95%
19 | COC(=O)c1cc2occc2n1Cc1nc(-c2cccc(Br)c2)oc1C | inactive: 80%
20 | Cc1cc(NC(=O)CC(C)C)c(=O)n(Cc2ccccc2F)c1 | inactive: 104%
21 | COc1ccc(-c2nc3ccccc3o2)cc1N | inactive: 72%
22 | Cc1nc2nc(SCC(=O)N(Cc3ccccc3)C(C)C)nn2c(C)c1Cc1ccccc1Cl | inactive: 49%

Row | Structure (SMILES) | survival
23 | CSc1ccc(CCNc2ncnc3onc(-c4ccc(Cl)cc4)c23)cc1 | inactive: 67%
24 | Cc1cc(C)c2sc(N3CCN(C(=O)C4CC4)CC3)nc2c1 | inactive: 126%
25 | Cc1ccc(-n2c3c(cc(C(=O)NCc4ccco4)c2=O)C(=O)CCC3)cc1 | inactive: 96%
26 | CCc1ccc(CNC(=O)CSCc2cnn(-c3ccccc3)c2-n2cccc2)cc1 | inactive: 65%
27 | Cc1ccc(Cn2c(=O)c3ccccc3n3c(-c4ccccc4)nnc23)cc1 | inactive: 86%
28 | COc1ccc(C2CC(=O)N3CN(C4CCCCC4)CSC3=C2C#N)cc1 (configuration not stated) | inactive: 123%
29 | CCOC(=O)C1=C(C)N(C)C(c2ccccc2)(C(F)(F)F)NC1=O (configuration not stated) | inactive: 99%
30 | COc1ccc(NC(=O)CCCS(=O)(=O)c2nc(-c3ccc(OC)c(OC)c3)cc(C(F)(F)F)n2)cc1OC | inactive: 80%
31 | Cc1ccc(OCC(=O)Nc2ccc3nc(SCC(=O)N4CCCC4)sc3c2)cc1C | inactive: 74%
32 | COc1ccc(-n2c(=O)c3c4c(sc3n(Cc3cc(=O)n5c(C)cccc5n3)c2=O)CCC4)c(OC)c1 | inactive: 61%
33 | CCN1C(=O)CC(C(=O)Nc2ccc(OC)cc2)SC1=Nc1ccc(C)c(C)c1 (configuration not stated) | inactive: 50%
34 | O=C(Cn1cnc2c(cnn2-c2ccccc2)c1=O)N1CCCc2ccccc21 | inactive: 96%
35 | CC1(C)CC(=O)C2=C(C1)N(CC(=O)O)C1=C(C(=O)CC(C)(C)C1)C2c1ccccc1 | inactive: 76%
36 | O=C(NCCC1=CCCCC1)c1ccc2c(c1)N(Cc1ccccc1)C(=O)c1ccccc1S2(=O)=O | inactive: 67%
37 | COc1ccc(OC)c(CNS(=O)(=O)c2ccc(-c3cc(C(F)(F)F)on3)s2)c1 | active: -4%
38 | O=C(Cn1cc(SCc2ccccc2Cl)c2ccccc21)N1CCCCCC1 | inactive: 74%
39 | O=C(Nc1ccc2c(c1)N(C1CCCC1)C(=O)c1ccccc1S2)c1ccccc1 | inactive: 60%
40 | COc1cccc(-c2nc(CS(=O)CC(=O)N3CCN(c4cccc(C(F)(F)F)c4)CC3)c(C)o2)c1 (configuration not stated) | active: 0%
41 | COc1ccc(CCNC(=O)C(=O)NCC(c2cccs2)S(=O)(=O)c2ccccc2)cc1 (configuration not stated) | inactive: 129%
42 | Cc1ccc(SCC(=O)Nc2ccc3oc(-c4cccc(C)c4)nc3c2)cc1 | inactive: 64%
43 | N=C(N=Nc1c(O)n(Cc2ccccc2)c2ccccc12)SCC(=O)Nc1ccccc1 | active: 23%
44 | Cc1ccc(Cl)cc1NC(=O)CCS(=O)(=O)c1ccc(Br)s1 | inactive: 49%

Row | Structure (SMILES) | survival
45 | Cc1ccc(N2CC(C(=O)OCC(=O)C(C)(C)C)CC2=O)cc1 (configuration not stated) | inactive: 103%
46 | CC(C)CCNC(=O)CSc1nc2ccsc2c(=O)n1Cc1ccccc1Cl | inactive: 82%
47 | COC(=O)CSc1n[nH]c(C)n1 | inactive: 92%
48 | COc1ccc(-c2noc(-c3ccccc3NC(=O)c3cc(OC)c(OC)c(OC)c3)n2)cc1 | active: 34%
49 | O=C(c1cc2ccccc2oc1=O)N(Cc1ccc2c(c1)OCO2)CC1CCCO1 (configuration not stated) | active: 42%
50 | O=S(=O)(Nc1nc2n(n1)C(c1ccccc1)C=C(c1ccc(Cl)cc1)N2)c1ccccc1 (configuration not stated) | active: 47%
51 | Cc1ccc(N2CCN(C(=O)c3nn(C)c4c3CSc3ccccc3-4)CC2C)cc1 (configuration not stated) | inactive: 53%
52 | Cc1ccc(CNC(=O)CN(c2cc(C)cc(C)c2)S(=O)(=O)c2c(C)[nH]c(=O)[nH]c2=O)cc1 | inactive: 91%
53 | CCc1ccc(C2c3c(n[nH]c3C)C(=O)N2c2ccc(C)cc2)cc1 (configuration not stated) | active: 8%
54 | CCc1cccc(NC(=O)CCS(=O)(=O)c2ccc(C)cc2)c1 | inactive: 88%
55 | O=C(NC1CCCC1)c1ccc2c(c1)N(Cc1ccc(F)cc1)C(=O)c1ccccc1S2 | inactive: 81%
56 | O=C(NCCCN1CCN(c2ccccc2)CC1)c1cc2c(s1)-c1ccccc1OC2 | inactive: 53%
57 | CCC1CN(C(=O)Nc2cccc3c2CCCC3)c2cc(C)ccc2O1 (configuration not stated) | inactive: 49%
58 | CCOC(=O)c1c(C)oc2nc(C)nc(NCCCN3CCN(c4cccc(C)c4)C(C)C3)c12 (configuration not stated) | inactive: 117%
59 | Cc1ccccc1Cc1c(C)nc2nc(SCC(=O)NC(C)c3ccccc3)nn2c1C (configuration not stated) | active: 57%
60 | CCCCNC(=O)C1CCN(Cc2nc(-c3ccc(OC)c(OC)c3)oc2C)CC1 | inactive: 99%
61 | O=C1NC(=O)C(Nc2ccccc2Cl)S1 (configuration not stated) | inactive: 78%
62 | Cc1cccc(NC(=O)c2c(Br)sc3c2CCCC3)c1 | active: 3%
63 | O=C(NCc1ccc(Cl)cc1)C1CCCN(c2ncnc3onc(-c4ccc(F)cc4)c23)C1 (configuration not stated) | inactive: 98%
64 | COc1ccc(Nc2nnc(-c3ccc(C)c(S(=O)(=O)N4CCOCC4)c3)c3ccccc23)cc1 | inactive: 66%
65 | COc1ccccc1N1CCN(C(=O)CSc2nc(-c3ccc(C(C)C)cc3)no2)CC1 | inactive: 102%
66 | O=C(CSc1nc2ccccc2o1)NN=C1CCCC1 | inactive: 90%

Row | Structure (SMILES) | survival
67 | O=C(COc1ccccc1F)Nc1nnc(S(=O)(=O)N2CCCCCC2)s1 | active: 51%
68 | CCOc1cc(C2c3c(oc4ccc(F)cc4c3=O)C(=O)N2Cc2ccc(C)cc2)ccc1O (configuration not stated) | inactive: 169%
69 | CCCCNC(=O)CSc1nc2n[nH]c(C)c2c(=N)n1-c1ccccc1CC | inactive: 89%
70 | COc1ccc(C2CC(=O)c3c([nH]c(C(=O)OCc4ccccc4)c3C)C2)cc1OC (configuration not stated) | inactive: 95%
71 | CCN(C(=O)NCc1noc2ccccc12)c1cc(C)ccc1C | inactive: 55%
72 | CCOC(=O)c1nc(Nc2cccc(C)c2)c2ccccc2n1 | inactive: 75%
73 | CCOc1ccc(CNC(=O)CCn2cccn2)cc1OC | inactive: 73%
74 | Cc1ccc2nc(/C(C#N)=C/c3ccc(-c4cccc(Cl)c4)o3)[nH]c2c1 | active: 6%
75 | Cc1cc(C)c2[nH]c(=O)c(CN(C3CCCCC3)C(c3nnnn3Cc3ccco3)C(C)C)cc2c1 (configuration not stated) | inactive: 107%
76 | Cc1nc2nc(SCC(=O)NC(C)c3ccccc3)nn2c(C)c1Cc1c(F)cccc1Cl (configuration not stated) | inactive: 68%
77 | CCOc1ccc(CN2C(=O)c3ccccc3Sc3ccc(C(=O)NCc4ccc(C)cc4)cc32)cc1 | inactive: 75%
78 | COC(=O)c1ccc(NC(=O)CC2C(=O)N(c3cccc(OC)c3)C(=O)N2Cc2cccc(OC)c2)cc1 (configuration not stated) | inactive: 105%
79 | O=C(CSc1oc(-c2ccco2)nc1S(=O)(=O)c1ccc(Cl)cc1)c1ccccc1 | inactive: 125%
80 | CCN(CCCNC(=O)c1nn(-c2ccc(OC)cc2)c(=O)c2c1c1ccccc1n2C)c1cccc(C)c1 | inactive: 82%
81 | COc1ccc(-c2cccc(NS(=O)(=O)c3cc(C)c(Cl)cc3C)c2)nn1 | inactive: 102%
82 | CCCCC12CN3CC(C)(CN(C1)C3c1c(C)[nH]c(=O)[nH]c1=O)C2=O (configuration not stated) | inactive: 76%
83 | CCOc1ccc(CCNC(=O)c2cc3c(-c4cccc(OC)c4)nn(C)c3s2)cc1OCC | inactive: 66%
84 | CCOc1ccc(NC(=O)CN2C(=O)C(c3ccccc3)=NC23CCCCCC3)cc1 | inactive: 90%
85 | Cc1cc(NC(=O)CN(C)S(=O)(=O)c2ccc3c(c2)CCC(=O)N3)ccc1Br | inactive: 73%
86 | Cc1cccc(Cn2c(C)c(C)c3cc(C(=O)NCc4ccc(C)o4)ccc32)c1 | inactive: 86%
87 | Cc1cccc(C(CC(=O)NCC2(c3ccccc3)CCCC2)c2ccccc2)c1O (configuration not stated) | active: 38%
